In the supplement of paper PMC5655136:
Values come from read counts of a selection and are noisy.

test system: NB7; experiment: fold depletion of shRNA, plasmid library share / infected cells without Dox share (9 days) (ratio); higher = more depleted after infection (more toxic, leaky expression from a Tet-inducible vector; NB7 is a neuroblastoma line without caspase-8); conditions: shRNA pool: CD95L ORF + CD95L 3'UTR + Venus libraries
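Note: shRNA barcodes quantified by deep sequencing of PCR amplicons from cellular DNA, counts expressed as percent of each subpool, ratio averaged over two biological duplicates.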

Sequence | fold depletion of shRNA
GTTACAGGCACCGAGAATGTT | 1.24
ACACCCTGGTGAACCGCATCG | 2.13
AACTCACCTAATGTTTATGAG | 0.962
TTCTTCCCTGTCCAACCTCTG | 2.58
CGCCGCCGGGATCACTCTCGG | 0.66
GTGAAGTATAAGAAGGGTGGC | 0.941
GTCTCCTTGTGATGTTTTTCA | 2.14
GAGGCTTGCATAATAAGCTAA | 1.75
CTCTGGGCTGCCATGTGAAGA | 0.824
TGGTTCTGGTTGCCTTGGTAG | 4.04
AAGAGGGAGAAGCATGAAAAA | 0.866
TGTATATTCCAAAGTATACTT | 0.498
GCAGAAGAACGGCATCAAGGC | 0.324
GCCCTTCAATTACCCATATCC | 5.68
ATGTTTTGGGGACTCATTTCA | 0.936
TGAGGTCAAGTAAGAAGACAT | 1.28
TGTGATCAATGAAACTGGGCT | 1.85
GAGCCACAAGGTCTACATGAG | 1.02
CTGGAGTTCGTGACCGCCGCC | 0.77
CGCCGACAAGCAGAAGAACGG | 1.06
ACTAACAGATAAGCAAGAGAG | 0.469

same assay, conditions: shRNA pool: CD95 ORF + CD95 3'UTR + Venus libraries

Sequence | fold depletion of shRNA
ATAGAAAACATTAAATTATAA | 1.21
CATAGCAATGGTAAAATCATC | 0.785
ACACCCTGGTGAACCGCATCG | 1.22
CAGAAAGCACAGAAAGGAAAA | 0.754
CAGAACTTGGAAGGCCTGCAT | 7.69
CTCATGAATCTCCAACTTTAA | 0.844
TGCTCATCTTAATGGCCTAAT | 2.06
TTTGCCTCTAAATTACCTCTG | 0.487
TGGGAAAACAAACTTCATCAA | 3.1
ATATGCAATTAGTGTTTGAAA | 1.25
CGCCGCCGGGATCACTCTCGG | 1.13
TATGCTCTGGCATCTAACATA | 1.73
AGTACAGAAAACATGCAGAAA | 2.39
ATACTGCTTGGTTTTTTACTG | 3.21
TGAACCCATGTTTGCAATCAA | 0.933
GCAGAAGAACGGCATCAAGGC | 0.647
CTACTGTATGTGAACACTGTG | 1.64

Sequence | fold depletion of shRNA
CATCCTCAAGGACATTACTAG | 1.41
TGCAGAGGATGAAAGATTAAG | 1.17
GCTGTAAATACTGCTTGGTTT | 1.68
ATTGAGGAAGACTGTTACTAC | 1.07
TGATAATTCTAGAGATTTTAC | 0.94
CTCAGGCATCAAAAGCATTTT | 1.98
TCTTTGAAAGTTTGTATTAAA | 1.54
GATAAAATAGATTCTTATTTT | 1.16
GTGACATGTCATGAACCCATG | 1.34
CAGCAGAACAGAAAGTTCAAC | 0.827
CTGGAGTTCGTGACCGCCGCC | 0.522
AACTCTACTGTATGTGAACAC | 1.24
CGCCGACAAGCAGAAGAACGG | 0.985
ATTAAATGTGAATTTTAAGAA | 0.739
TTGTACTCTTGCAGAGAAAAT | 1.17
GAGGAAGACTGTTACTACAGT | 1.59
CAAGAGTAAATGCAGTGGCAT | 1.44
